Reference: PubChem BioAssay AID1347043 (National Center for Advancing Translational Sciences (NCATS), 2019)
Hit rate of the full screen: of about 76,000 compounds, about 1,900 (2.5%) were called active. The shares of active, inactive and inconclusive entries below differ from those in the screen. Calls follow the shape of the dose curve; as a rule, active = well fitted inhibition curve with a large enough effect; inconclusive = small, poorly fitted or top-dose-only effect; inactive = flat fitted curve, though single readings scatter. Where the call is inconclusive, the potency comes from a doubtful curve fit.

biological target: Luciferin 4-monooxygenase (Photinus pyralis) (UniProt P08659); assay: Firefly luciferase inhibition profiling of diverse chemical library using quantitative high-throughput screening; also: nearly all actives have a fitted effect of over 65% in size; details: purified P. pyralis luciferase, luminescence, biochemical; series mostly up to 115 µM
How it was run: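 Luminescence read by CCD imaging after purified firefly luciferase (10nM final) was added to substrate buffer holding 10uM D-luciferin and 10uM ATP, pH 7.5, pre-dosed with compound.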
Potency is read from the fitted curve at half-maximal effect; tags tell the direction and shape of the fitted curve.

Sequence of UniProt P08659 (P08659 whole entry, looked up): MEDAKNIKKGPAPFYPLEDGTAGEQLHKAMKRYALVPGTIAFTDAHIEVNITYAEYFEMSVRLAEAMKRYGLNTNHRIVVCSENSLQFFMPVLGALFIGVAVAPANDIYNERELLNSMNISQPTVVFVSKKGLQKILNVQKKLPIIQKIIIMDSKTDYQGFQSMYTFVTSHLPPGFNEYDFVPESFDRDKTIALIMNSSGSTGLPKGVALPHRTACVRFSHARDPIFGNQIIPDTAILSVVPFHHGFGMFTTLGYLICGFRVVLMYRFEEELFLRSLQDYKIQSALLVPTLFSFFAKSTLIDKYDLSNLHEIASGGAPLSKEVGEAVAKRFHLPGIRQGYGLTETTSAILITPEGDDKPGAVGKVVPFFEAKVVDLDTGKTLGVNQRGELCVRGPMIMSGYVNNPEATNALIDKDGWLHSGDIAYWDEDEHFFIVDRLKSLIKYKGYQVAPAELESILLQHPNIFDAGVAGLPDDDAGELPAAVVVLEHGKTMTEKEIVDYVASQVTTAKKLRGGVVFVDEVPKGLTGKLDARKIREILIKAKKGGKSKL

| SMILES | Potency |
| --- | --- |
| CSc1ccc(-c2ccc3c(c2)C(=O)N2CC[C@H](NC(=O)C4CCCC4)[C@H]2C(=O)N3)cc1 | inconclusive: 39.8 µM [inhibitor, full curve, poor fit] |
| COc1cccc(Nc2cnc3ccc(-c4ccccc4OC)nn23)c1 | inactive |
| COc1ccc(OC)c(S(=O)(=O)N2CCCOCCNC(=O)[C@@H]3CCC[C@@H]32)c1 | inactive |
| Nc1cccc(-c2ccc(N3CCCCC3)nn2)c1 | active: 0.398 µM |
| CCCN1CCC2(CCN(C(=O)c3ccc(OC)cc3)CC2)Oc2ccccc21 | inactive |
| O=C(CN1C(=O)NC(c2ccccc2Cl)C2=C1COC2=O)Nc1ccc2c(c1)OCO2 (stereo not drawn) | inconclusive: 35.5 µM [inhibitor, partial curve] |
| O=C(c1csc(Cc2ccccc2)n1)N1Cc2ccccc2C(O)C1 (stereo not drawn) | active: 39.8 µM |
| O=C(NC1CCCN(c2cc(-c3ccccc3)[nH]n2)C1)c1ccc(F)cc1Cl (stereo not drawn) | inconclusive: 35.5 µM [inhibitor, partial curve] |
| COc1ccc(C(=O)N2CCc3ccc(C(=O)NCc4ccc5c(c4)OCO5)cc32)cc1 | inactive |
| CC(=O)N1CCNc2cc(-c3ccc(Oc4ccccc4)cc3)ncc2C1 | active: 20 µM |
| O=C(CC1CCOC2(CCN(Cc3cccc(F)c3)CC2)C1)NCc1ccncc1 (stereo not drawn) | inactive |
| Cc1ccc(-n2c(C3CCN(C(=O)c4cccc(N(C)C)c4)CC3)n[nH]c2=O)cc1 | inconclusive: 50.1 µM [inhibitor, partial curve] |
| O=C(CN1C(=O)NC(c2ccccc2Cl)C2=C1COC2=O)Nc1cccc(F)c1 (stereo not drawn) | inconclusive: 50.1 µM [inhibitor, partial curve] |
| COc1ccc(C2Cn3cnc(C(=O)N4CCC(C(=O)Nc5cccc(F)c5)CC4)c3CO2)cc1 (stereo not drawn) | inconclusive: 50.1 µM [inhibitor, partial curve] |
| CCc1ccc(NC(=O)C2CCN(C(=O)c3ncn4c3COC(c3ccc(OC)cc3)C4)CC2)cc1 (stereo not drawn) | inconclusive: 44.7 µM [inhibitor, partial curve] |
| CCNc1cc(N2CCC(CCC(=O)Nc3cccc(OC)c3)CC2)ncn1 | inconclusive: 39.8 µM [inhibitor, partial curve] |
| Cc1ccc(C(=O)N[C@H]2CO[C@H]3[C@@H]2OC[C@@H]3Nc2nccc(C(C)(C)C)n2)cc1 | inconclusive: 100 µM [inhibitor, partial curve] |
| Cc1ccc(CN2CC[C@H](c3nnc(-c4ccco4)o3)C2)o1 | inconclusive: 126 µM [inhibitor, single point] |
| CN(Cc1ccccc1)Cc1cn([C@H]2CO[C@H]3[C@@H]2OC[C@@H]3NCc2ccco2)nn1 | inactive |
| Cc1noc2ccc(-c3ccccc3OCc3ccccc3)nc12 | inconclusive: 0.794 µM [inhibitor, full curve] |
| Cc1nc(CCNC(=O)C2CNCCO2)sc1C (stereo not drawn) | inactive |
| CC(=O)Nc1cccc(C(=O)NC2CCCN(c3cc(-c4ccc(F)cc4)[nH]n3)C2)c1 (stereo not drawn) | inconclusive: 44.7 µM [inhibitor, partial curve] |
| Cc1ccc(NC(=O)N(C)CC2CCOC2)cc1F (stereo not drawn) | inactive |

| SMILES | Potency |
| --- | --- |
| CCc1nc(-c2ccc(OC3CCN(S(=O)(=O)Cc4ccccc4)C3)cc2)no1 (stereo not drawn) | inconclusive: 15.8 µM [inhibitor, full curve] |
| N#Cc1cccc(CN2CCC3(CC2)CC(Cc2nc(C4CC4)no2)CCO3)c1 (stereo not drawn) | inactive |
| N#Cc1ccc(C(=O)NC2CCN(c3cc(-c4ccc(Cl)cc4)[nH]n3)C2)cc1 (stereo not drawn) | inactive |
| OCc1ccc(CN2Cc3[nH]cnc3C[C@H]2c2nc(-c3ccncc3)no2)o1 | inconclusive: 70.8 µM [inhibitor, partial curve] |
| O=C(Nc1ccc2c(c1)CN(Cc1ccccc1F)C(=O)CO2)c1ccccc1F | inconclusive: 44.7 µM [inhibitor, partial curve] |
| O=C(NCc1cccc(F)c1)N1CCc2nc3cc(-c4ccccc4)[nH]n3c(=O)c2C1 | inconclusive: 8.91 µM [inhibitor, full curve] |
| CCC1COCCN1Cc1cn(-c2ccccc2)nc1-c1ccc(OC)cc1F (stereo not drawn) | inconclusive: 44.7 µM [inhibitor, partial curve] |
| CCOC(=O)N1CCC(COc2ccc3c(cnn3CCC(=O)O)c2)CC1 | inconclusive: 70.8 µM [inhibitor, partial curve] |
| CNc1nc(C(=O)NCc2ccc3[nH]c(-c4ccc(F)cc4)c(C)c3c2)cs1 | active: 12.6 µM |
| O=C(CCCc1ccccc1)N1CCC2(CC1)CC(N(Cc1ccccc1)C1CC1)CCO2 (stereo not drawn) | inconclusive: 39.8 µM [inhibitor, partial curve] |
| COc1cccc(-c2cc3c(=O)n(CCNC(=O)C(C)Oc4ccccc4)ccn3n2)c1 (stereo not drawn) | inconclusive: 39.8 µM [inhibitor, partial curve] |
| O=C(NCc1ccc(Cl)cc1)c1ccn2nccc2c1 | inconclusive: 100 µM [inhibitor, partial curve] |
| Cc1ccc(NC(=O)N2CCC(CCNC(=O)CCCc3ccccc3)CC2)cc1 | inconclusive: 39.8 µM [inhibitor, partial curve] |
| C[C@@H]1C(=O)O[C@H]2[C@H]1CC[C@@]1(C)Cc3sc(NC(=O)NC4CCCCC4)nc3[C@@H](C)[C@H]21 | inconclusive: 28.2 µM [inhibitor, full curve] |
| Cn1cnc2cc(-c3cccc4[nH]ncc34)cc(C(=O)NCc3cccnc3)c21 | inconclusive: 79.4 µM [inhibitor, partial curve] |
| CC(C)CNC(=O)N1CC(Oc2ccccc2-c2nc(-c3ccccc3)no2)C1 | inconclusive: 35.5 µM [inhibitor, full curve, poor fit] |
| COc1ccc(C(=O)N2CCC(Cc3nncn3C)C2)cc1 (stereo not drawn) | inconclusive: 44.7 µM [inhibitor, partial curve] |
| c1cc2c(cc1-c1cn3c(n1)CO[C@@H](CNC1CCOCC1)C3)OCCCO2 | inconclusive: 70.8 µM [inhibitor, full curve, poor fit] |
| Cc1ccc(NC(=O)N2CCC(CCNC(=O)C(C)C)CC2)cc1 | inconclusive: 39.8 µM [inhibitor, partial curve] |
| COc1cccc(NC(=O)N2CCC(Cn3cc(C4CCCC4)nn3)CC2)c1 | inconclusive: 50.1 µM [inhibitor, partial curve] |
| COc1ccc(-c2noc(Nc3ccc4c(c3)OCO4)n2)cc1 | inconclusive: 2.51 µM [inhibitor, full curve] |
| Cn1cccc1C(=O)N1CCC(n2cc(-c3nc(-c4ccccc4)no3)nn2)CC1 | inconclusive: 63.1 µM [inhibitor, partial curve, poor fit] |
| O=C(NCc1ccc(Cl)cc1)c1cnn2ncccc12 | inconclusive: 50.1 µM [inhibitor, partial curve] |

| SMILES | Potency |
| --- | --- |
| CN(C)C(=O)N[C@@H]1CN[C@H](CO)C1 | inactive |
| O=C(NCc1ccco1)Nc1cccc(-c2ccc(N3CCCC3)nn2)c1 | active: 7.08 µM |
| COc1ccc(NC(=O)N2CCc3c(nc4cc(-c5ccccc5)[nH]n4c3=O)C2)c(OC)c1 | inconclusive: 25.1 µM [inhibitor, full curve] |
| COc1ccccc1C(CC(=O)NCCc1ccccc1)c1c[nH]c2ccccc12 (stereo not drawn) | inconclusive: 56.2 µM [inhibitor, partial curve, poor fit] |
| COc1ccc2cc(CN3CCNC(=O)C3C)c(-c3cccs3)nc2c1 (stereo not drawn) | inconclusive: 44.7 µM [inhibitor, partial curve] |
| CCOc1ccc(CN2CCCC(CO)(CCc3ccccc3)C2)cc1CO (stereo not drawn) | inactive |
| O=C(Nc1ccc(I)cc1)c1cc(-c2ccc[nH]2)n[nH]1 | inconclusive: 2.51 µM [inhibitor, full curve, poor fit] |
| COc1cccc(-c2ccnc3nc(-c4cccs4)nn23)c1 | active: 15.8 µM |
| Fc1ccc(-c2nnc3ccc(NCCc4ccccc4)nn23)nc1 | inconclusive: 79.4 µM [inhibitor, partial curve] |
| Cc1noc(-c2ccn3c(CNC(=O)c4cccc(N(C)C)c4)nnc3c2)n1 | inconclusive: 56.2 µM [inhibitor, partial curve, poor fit] |
| CN(Cc1ccc(-c2ccccc2)cc1)C(=O)Nc1ccc(Cl)cc1 | inconclusive: 44.7 µM [inhibitor, partial curve] |
| CCOc1ccc(C(=O)N2CCC(Cc3nc(C(C)C)no3)CC2)cc1 | inactive |
| O=C(N[C@@H]1CCOC[C@H]1OCCO)c1cc(-c2ccsc2)n[nH]1 | inactive |
| O=C(c1n[nH]c2ccccc12)N1CCC2(CC1)N(c1ccccc1)C(=O)CS2=O (stereo not drawn) | inactive |
| CCC(C)NC(=O)N1CC(n2cc(C(=O)N(C)CCOC)nn2)C1 (stereo not drawn) | inactive |
| COC(=O)[C@@H]1Cc2c([nH]c3ccccc23)[C@H]2C[C@@H](NCCN3CCOCC3)C[C@@H](c3ccc(OC(F)(F)F)cc3)N21 | inactive |
| Cc1ccc(C2Cn3nnc(C(=O)N4CCC(C(=O)Nc5cccc(Cl)c5)CC4)c3CO2)cc1 (stereo not drawn) | active: 28.2 µM |
| CC(=O)NCCC1CCN(C(=O)Nc2ccc(C)c(F)c2)CC1 | active: 5.01 µM |
| Cc1ccc(CNC(=O)C2CCN(C(=O)c3ncn4c3COC(c3ccc(Cl)cc3)C4)CC2)cc1 (stereo not drawn) | inconclusive: 44.7 µM [inhibitor, partial curve] |
| COc1ccc(CN2CCC3(Cc4ccccc4NC3=O)C2)cc1 (stereo not drawn) | inactive |
| Cc1ccc(C(=O)Nc2ccc3c(N4CCOCC4)ncnc3c2)cc1 | active: 15.8 µM |
| CCN1C(=O)CCC2(C(=O)N3CCN(Cc4ccc5c(c4)OCO5)CC3)CCCC=C12 (stereo not drawn) | inconclusive: 44.7 µM [inhibitor, partial curve] |
